Molecules are shown by their SMILES. Over roughly 110,000 compounds, “z-score” has its median near -0.1; the highest 2% begin near 2. This is one part of the list. Activity calls are given as the source filed them.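 The calls were made as follows: active = z-score in the third read window above 3 or below -3; inactive = the rest.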

The target of the assay is Metabotropic glutamate receptor 8 (Rattus norvegicus) (UniProt P70579). Nature of the assay: mGluR8 Gi/Go-coupled signaling modulation – cell-based, rat, thallium flux, HTS, primary screen (AID 488969). As to conditions: HEK293 rat mGluR8, GIRK (G protein-gated inwardly rectifying potassium channel) thallium flux, FluoZin2; at 10 µM; stronger effect = higher value; submaximal glutamate (EC20) added with thallium.
Chain of UniProt P70579 (P70579 whole entry, looked up): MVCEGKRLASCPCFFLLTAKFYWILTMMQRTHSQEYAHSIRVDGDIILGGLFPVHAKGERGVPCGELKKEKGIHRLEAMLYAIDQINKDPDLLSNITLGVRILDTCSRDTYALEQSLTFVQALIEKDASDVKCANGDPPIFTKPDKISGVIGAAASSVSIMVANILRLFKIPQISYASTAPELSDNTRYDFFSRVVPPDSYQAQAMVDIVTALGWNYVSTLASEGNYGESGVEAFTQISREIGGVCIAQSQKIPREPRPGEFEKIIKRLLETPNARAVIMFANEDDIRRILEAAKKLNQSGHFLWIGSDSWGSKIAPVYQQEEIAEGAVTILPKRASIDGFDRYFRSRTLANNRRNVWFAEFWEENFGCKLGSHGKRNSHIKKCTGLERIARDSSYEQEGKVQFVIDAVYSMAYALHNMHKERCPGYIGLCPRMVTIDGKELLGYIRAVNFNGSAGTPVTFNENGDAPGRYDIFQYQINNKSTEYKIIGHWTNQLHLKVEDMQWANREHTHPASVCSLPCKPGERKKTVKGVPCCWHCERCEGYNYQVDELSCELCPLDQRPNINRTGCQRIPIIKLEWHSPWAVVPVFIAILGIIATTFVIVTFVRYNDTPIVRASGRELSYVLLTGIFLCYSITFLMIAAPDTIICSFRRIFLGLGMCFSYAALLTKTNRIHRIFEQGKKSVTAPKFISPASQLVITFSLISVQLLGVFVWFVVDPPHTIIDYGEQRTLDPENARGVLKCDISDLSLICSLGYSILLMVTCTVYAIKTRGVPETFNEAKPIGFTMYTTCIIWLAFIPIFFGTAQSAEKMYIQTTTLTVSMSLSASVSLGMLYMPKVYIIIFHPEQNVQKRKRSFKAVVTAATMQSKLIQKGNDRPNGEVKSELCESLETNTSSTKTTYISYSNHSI
Compound `CC(C)c1cc(N2CCN(C(=O)c3ccco3)CC2)n2c(nc3ccccc32)c1C#N` returned a z-score of -0.614.

`COc1nnc(-c2ccc(N3CCCCC3)c(NC(=O)C3CCCCC3)c2)c2ccccc12` registered a z-score of -0.3.

In turn, `CC(C)(C)n1ncc(Oc2ccc(Oc3cnn(C(C)(C)C)c(=O)c3Cl)cc2)c(Cl)c1=O` registered a z-score of 0.804.

As for `COC(=O)c1ccc(NS(=O)(=O)c2ccc(OC)cc2)cc1`, the z-score is 0.37. The figure for `COc1ccc(S(=O)(=O)n2ccnc2)c2cccnc12` is -0.239; for `CC(/C=C/c1ccco1)=N/NC(=O)Cc1cccs1` it is 0.472; for `Cc1ccc(-c2nnc(SCC(=O)N/N=C/c3c(C)nn(-c4ccccc4)c3C)n2-c2ccc(C)cc2)cc1` it is -1.37. Then `COc1nccnc1NS(=O)(=O)c1ccc(NC(=S)NC(=O)c2ccccc2F)cc1`, with -0.299; and `COC(=O)c1nnn(-c2nonc2N)c1CSc1ccc(Cl)cc1`, with 0.549.

Regarding `C/C(=N\O)C(=O)NCC1CCNCC1`, the z-score was -1.03. Then `CC(NC(=O)c1ccncc1)C(C)(C)C` (stereo not drawn), with -0.462. The figure for `Nc1ccc(C(=O)OCc2csc(-c3ccccc3)n2)cc1[N+](=O)[O-]` is 0.00351. The compound `O=S(=O)(N/N=C\c1ccc2c(c1)OCO2)c1ccc(Cl)cc1` had a z-score of -0.14. The figure for `Cc1ccc(N=Nc2c(N)[nH]n3c(=O)c4c(nc23)CCCC4)cc1` is -0.696. In the case of `CCOC(=O)c1cc(-c2ccc(Cl)cc2)nc2c1c(C)nn2CCC#N`, the z-score was active: 3.13.

In turn, `CCOc1ccc(C(C)=O)cc1Cn1nc(C(=O)O)c2ccccc2c1=O` yielded a z-score of -0.745.

As for `CCOC(=O)c1c(NC(=S)Nc2ccccc2)sc2c1CCN(CCc1ccccc1)C2`, the z-score came out at 0.012. Compound `O=C(/C=C/c1cccs1)c1ccc(Br)cc1` showed a z-score of 0.0153.

Compound `O=C(Nc1cccc(C(F)(F)F)c1)N(Cc1ccc(Cl)cc1)CC(O)C(F)(F)F` (stereo not drawn) gave a z-score of 0.0136. `CN(C(=O)C1CCCO1)c1nnc(-c2ccncc2)s1` (stereo not drawn) returned a z-score of -0.579. The figure for `CSCC[C@H](NC(=O)C(C)(C)Oc1ccc(Cl)cc1)c1nc2ccccc2[nH]1` is -0.153. The compound `Cc1nn(C)c(C)c1C1Nc2ccccc2C(=O)N1O` (stereo not drawn) showed a z-score of 0.0427.

On to `O=C(COc1ccc(S(=O)(=O)Nc2ccccc2)cc1)NCc1cccnc1`, for which the z-score is -0.0839. Then `CC(C)Oc1ccc(OCCNC2CCCC2)cc1`, with -0.0109. Compound `CCN(C(N)=S)c1ccccc1` yielded a z-score of -0.0774. Then `CCCn1c(CC)nc([N+](=O)[O-])c1Sc1ccc(F)cc1`, with -0.87; and `CCCCn1nc2cc(C(=O)NCC34CC5CC(CC(C5)C3)C4)ccc2c1OCC`, with -0.142; and `Cc1ccc(S(=O)(=O)CCC(=O)OCC(=O)Nc2ncc(Cl)cc2Cl)cc1`, with 0.131. The figure for `c1ccc(Cn2c(CSc3nnnn3-c3ccccc3)nc3ccccc32)cc1` is -0.165. Then `Cc1cc(-n2c(C)cc(C(=O)CN3C(=O)NC4(CCCC4)C3=O)c2C)no1`, with 0.226. `O=C(CSc1nnc(-c2ccccn2)n1Cc1ccco1)c1ccccc1` came in with a z-score of 1.88. In the case of `CCC(CC)C(=O)NCCc1ccc(OC)cc1`, the z-score is -0.246. Consider `Cn1nc(C(=O)N2CCOCC2)c([N+](=O)[O-])c1C(=O)N1CCOCC1`, for which the z-score was -0.0601. Then `CC12CCCc3c(O)cc(=O)n(c31)-c1ccccc12` (stereo not drawn), with -1.16; and `C=CCn1c(SCCC)nc2sc3c(c2c1=O)CCc1ccccc1-3`, with -0.0297; and `CSc1nncc(/C(C)=N\Nc2ccccc2C)n1`, with -0.0694. Regarding `CCOC(=O)N1CCN(C(=O)CN(C2CCCCC2)S(C)(=O)=O)CC1`, the z-score worked out at 0.489. In the case of `Cc1ccc(NC(=O)Cn2nc(C(F)(F)F)c3c2CCC3)cc1`, the z-score was -1.11.

For the compound `Cc1ccc(N(CC(=O)Nc2ccc(C)cc2C)S(=O)(=O)N2CCCC2)cc1`, the z-score is -0.379. In the case of `CN(C)c1ccc(N=C/C=C2/N(C)c3ccccc3C2(C)C)cc1`, the z-score is 0.909. Then `C=CCNC(=O)/C(C#N)=C/c1cn(-c2ccccc2)nc1-c1cccs1`, with -0.0995.

With `COc1cc(C(=O)Nc2c(C)cc(C)cc2C)c([N+](=O)[O-])cc1OC`, the z-score is -0.304. `O=C(Nc1cccc2[nH]ncc12)c1ccc(F)cc1` yielded a z-score of -0.0429.

`COC(=O)c1cc(C(=O)N(Cc2ccccc2)c2ccccn2)cc([N+](=O)[O-])c1` showed a z-score of -0.435.

In turn, `CCOC(=O)c1c(C)sc(Sc2ccc(Cl)cc2[N+](=O)[O-])c1OC` had a z-score of -0.412.

Compound `Cc1cccc(N/N=C(\C(N)=O)C2=NC(C)(C)Cc3ccccc32)c1` registered a z-score of -0.302.

As for `CCOC(=O)c1ccc(N2C(=O)c3n[nH]c(C)c3C2c2ccc(OC)cc2OC)cc1` (stereo not drawn), the z-score was -0.325. The figure for `C=CCn1c(SCc2ccc3c(c2)OCO3)nc2scc(-c3ccco3)c2c1=O` is -0.276. The figure for `Cc1nn(-c2ccccc2)c(N2CCCC2)c1/C=N/NC(=O)c1cc(-c2ccccn2)nc2ccccc12` is -0.211.

`CCOC(=O)c1c(NC(=O)COC(=O)Cn2c(C(F)(F)F)nc3ccccc32)sc(C)c1C` returned a z-score of 0.193.

Regarding `CCOC(=O)c1sc(=S)sc1SCc1cccc(C(F)(F)F)c1`, the z-score is -0.0513. The figure for `O=C(NCc1ccco1)c1ccccc1NS(=O)(=O)c1ccc(Br)s1` is -0.938; for `CSc1n[nH]c(NCc2ccccc2)n1` it is -0.326; for `O=C(Nc1ccc(S(=O)(=O)N2CCN(c3ccccc3)CC2)cc1)c1cccs1` it is 0.314. The figure for `C=CCn1c(SCC(=O)N2CC(=O)Nc3ccccc32)nc2scc(-c3cccs3)c2c1=O` is -0.201; for `O=C(NCCCN1CCCC1=O)Nc1ccc(Cl)cc1` it is 0.0955. The figure for `CCOc1cc(/C=N/NC(=O)Cn2nc([N+](=O)[O-])cc2C)cc(Br)c1OCc1ccccc1F` is -0.0118. In turn, `CCOCCCNC(=O)C(NC(=O)c1cnccn1)c1ccc(C)cc1` (stereo not drawn) yielded a z-score of -0.074. `O=C1CSC(c2cn(-c3ccccc3)nc2-c2ccc3c(c2)OCCO3)N1CCN1CCOCC1` (stereo not drawn): the z-score is -0.686. The figure for `CC(=O)N(Cc1cccs1)C1CCOC(C)(C)C1` (stereo not drawn) is -0.145.

In turn, `CC(C)CN(C(=O)COC(=O)C12CC3CC(CC(O)(C3)C1)C2)C1CCS(=O)(=O)C1` (stereo not drawn) yielded a z-score of -0.449. Then `COc1ccc(CCNC(=O)CSc2nn(-c3ccccc3)c(=S)s2)cc1OC`, with -0.438. The figure for `COc1ccc(NC(=O)CS(=O)CC(=O)Nc2cc(Cl)ccc2OC)cc1` (stereo not drawn) is 0.00382; for `O=C(NCCCn1ccnc1)C1CC(c2cccc(Br)c2)=NO1` (stereo not drawn) it is 0.193. As for `CC(=O)c1c(NCCc2ccccc2)cc(C)oc1=O`, the z-score is -0.739. Take `CC(NC(=O)NC1CCCCC1)c1ccccc1` (stereo not drawn): the z-score was -0.00749. With `COc1ccc(CNC(=O)C/C(C)=N/NC(=O)C(c2ccccc2)c2ccccc2)cc1`, the z-score was -1.15. `Cc1ccc(NC(=O)C(NC2CCCc3ccccc32)c2ccccc2)c([N+](=O)[O-])c1` (stereo not drawn): the z-score is 2.09. Compound `COC(=O)C(Cc1cnc(Cl)s1)(C(=O)OC)c1ccccc1[N+](=O)[O-]` registered a z-score of 0.111. Compound `Cc1cc(C)cc(N2C(=O)CC(N3CCOCC3)C2=O)c1` (stereo not drawn) displayed a z-score of 0.58. Turning to `CC(C)CC(NC(=O)c1ccc(Cl)cc1Cl)C(=O)O` (stereo not drawn), the z-score is -0.413. The figure for `CC(=O)c1cccc(NC(=O)c2ccc(NS(C)(=O)=O)cc2)c1` is -0.67; for `Cc1ccc(OCC(O)Cn2c(N3CCOCC3)nc3c2c(=O)[nH]c(=O)n3C)cc1` (stereo not drawn) it is 0.225. The figure for `C#CC(CC)(CC)NC(=S)Nc1ccc(S(N)(=O)=O)cc1` is -0.581.

`CCOC(=O)CSc1c(-c2ccccc2)c2cc(Cl)ccc2[nH]c1=O` came in with a z-score of -0.516. `CCCn1c(=N)n(CC(O)c2ccco2)c2ccccc21` (stereo not drawn) gave a z-score of 0.907.

`COc1ccc(NC(=O)CNS(=O)(=O)c2cccs2)c(OC)c1` yielded a z-score of -0.279. Then `COc1cc(NS(=O)(=O)c2ccc(NC(=O)COc3ccc(C)cc3C)cc2)nc(OC)n1`, with -0.0792; and `CCNC(=O)c1cc(Br)ccc1Cl`, with -0.416. Consider `O=C(NC(CC(=O)N1CCN(c2ccccc2)CC1)c1ccccc1)c1ccccc1Cl` (stereo not drawn), for which the z-score is -0.37.

`CCN(CC)S(=O)(=O)c1cccc(C(=O)N/N=C/c2cc(OC)c(O)c(OC)c2)c1` showed a z-score of -0.593. For `CC(C)(C)NC(=O)NC(=O)COC(=O)C1=COCCO1`, the z-score came to 0.249. The figure for `O=C(COc1ccccc1)Nc1nc(-c2ccc(S(=O)(=O)N3CCOCC3)cc2)cs1` is -0.105; for `Cc1cc2n(n1)C(c1ccc(N(C)C)cc1)Nc1ccccc1-2` (stereo not drawn) it is -0.077; for `COc1ccccc1N1CCN(CC(=O)Nc2ccc(Cl)c(C(F)(F)F)c2)CC1` it is 0.377.

The compound `Cn1nc(C(=O)NCC2CCCO2)c2ccccc2c1=O` (stereo not drawn) gave a z-score of -0.154. Then `COC(=O)c1ccc2c(=O)n(CCCCCC(=O)NCc3ccc4c(c3)OCO4)c(=O)[nH]c2c1`, with 0.613; and `CC(C)(C)c1ccc2c(c1)OC(C(=O)N/N=C\c1ccccn1)CO2` (stereo not drawn), with 0.0186; and `O=C(N/N=C1/C(=O)c2cccc3cccc1c23)c1ccc(Cl)cc1`, with active: 3.2. `Nc1nonc1-c1noc(CCCCCN2C(=O)c3ccccc3C2=O)n1` came in with a z-score of -0.386.

In turn, `O=C(Nc1c(C(=O)Nc2cccc(F)c2)oc2ccccc12)c1ccc2c(c1)OCO2` yielded a z-score of -0.0192. Then `O=C1CCC(=O)N1c1nc2n(n1)C(c1ccccc1)C=C(c1ccc(Br)cc1)N2` (stereo not drawn), with 1.09; and `COc1ccc(NC(C)=O)cc1NC(=O)CSc1nnc(-c2cccnc2)n1C`, with 0.416. `CCC(=O)c1ccccc1OCCCN1C(=O)NC(C)(C)C1=O`: the z-score came to 0.365. `Cc1cc(C)c(C(=O)OCCNC(=O)c2cccnc2)cc1C` had a z-score of 0.326. `Cc1cc(F)ccc1NCc1cccnc1` displayed a z-score of -0.116. Then `CCCc1nc(SCC(=O)Nc2ccc(N3CCOCC3)cc2)c2ccccc2n1`, with 0.0725; and `NC(=O)c1ccccc1NC(=O)/C=C/C(=O)O`, with 0.214.

As for `CCSc1nc2sc3c(c2c(=O)[nH]1)CCc1ccccc1-3`, the z-score was -0.0881. As to `CCN(CCN(C)C)C(=O)Cn1ncc2c1-c1cc(C)ccc1OC2`, the z-score was -0.602. Then `CCN1CCN(C(c2cccs2)C(C)NC(=O)c2cccnc2)CC1` (stereo not drawn), with 0.292. Then `COc1ccccc1C(=O)Nc1nnc(C)s1`, with -0.136; and `CCSc1nnc(NC(NC(=O)c2ccco2)(C(F)(F)F)C(F)(F)F)s1`, with -0.0439. `COCCCNC(=O)CCc1ccc(S(=O)(=O)Nc2ccc(C)cc2)cc1`: the z-score came out at 0.805. The figure for `CCc1ccc(CN(C)CC(=O)Nc2ccccc2[N+](=O)[O-])cc1` is -0.428; for `COC(=O)c1c(C)c2c(C)cc3ccccn3c-2c1C(=O)OC` it is -0.152. In turn, `Cc1cccc(NC(=O)C2CC(O)CN2C(=O)OCc2ccccc2)c1` (stereo not drawn) yielded a z-score of -0.262. The figure for `Cc1ccc(N(CC(O)CN(C)C)S(=O)(=O)c2ccccc2)cc1` (stereo not drawn) is 1.2.

Values taken from PubChem BioAssay AID488969 (Vanderbilt High Throughput Screening Facility, 2010).
